Measured values taken from publication PMC9959916.
Positions count from the first letter of the chain named. Results are given in words; binding and its absence hold for the method and conditions named. Some entries that bind do so weakly or less than the wild type. Tags and fused reporters may be left off the sequences shown.

Protein sequences, listed by entry. Tags and fused reporters are not part of them.
UniProt Q8MKI8: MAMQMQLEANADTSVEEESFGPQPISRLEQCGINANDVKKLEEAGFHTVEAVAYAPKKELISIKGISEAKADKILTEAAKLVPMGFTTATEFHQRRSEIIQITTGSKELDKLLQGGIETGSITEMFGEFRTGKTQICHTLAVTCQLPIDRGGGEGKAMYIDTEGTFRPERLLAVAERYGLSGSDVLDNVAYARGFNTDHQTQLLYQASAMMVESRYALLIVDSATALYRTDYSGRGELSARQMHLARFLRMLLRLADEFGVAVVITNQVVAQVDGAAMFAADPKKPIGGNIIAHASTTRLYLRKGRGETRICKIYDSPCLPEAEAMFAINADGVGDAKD

Tests used:
Assay in all cases: two-hybrid; mammalian two-hybrid in HeLa cells: pM (Gal4 DNA-binding domain)-BRCA2 peptide, pVP16-canine RAD51, pG5-Luc firefly luciferase reporter, normalised to Renilla (pRL-TK); read two days after transfection
[1] = target: T1, Gal4 DNA-binding domain-fused cBRC1-HCR-BRC2 S1114P (canine (Canis lupus familiaris)) (UniProt Q8MKI9)
T1 sequence: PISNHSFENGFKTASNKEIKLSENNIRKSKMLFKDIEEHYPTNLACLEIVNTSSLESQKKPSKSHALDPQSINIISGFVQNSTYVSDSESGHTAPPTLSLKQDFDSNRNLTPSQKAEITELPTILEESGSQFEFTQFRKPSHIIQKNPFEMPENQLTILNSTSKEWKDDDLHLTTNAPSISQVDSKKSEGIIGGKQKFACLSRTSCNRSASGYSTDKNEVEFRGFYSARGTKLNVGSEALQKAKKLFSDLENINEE

[2] = target: T2, Gal4 DNA-binding domain-fused cBRC1-HCR-BRC2 T1127A (canine (Canis lupus familiaris)) (UniProt Q8MKI9)
T2 sequence: T1 sequence with P122S, T135A

[3] = target: T3, Gal4 DNA-binding domain-fused cBRC1-HCR-BRC2 S1105E (canine (Canis lupus familiaris)) (UniProt Q8MKI9)
T3 sequence: T1 sequence with S113E, P122S

[4] = target: T4, Gal4 DNA-binding domain-fused cBRC1-HCR-BRC2 3A (S1105A, S1122A, T1127A) (canine (Canis lupus familiaris)) (UniProt Q8MKI9)
T4 sequence: T1 sequence with S113A, P122S, S130A, T135A

[5] = target: T5, Gal4 DNA-binding domain-fused cBRC1-HCR-BRC2 I1110M (canine (Canis lupus familiaris)) (UniProt Q8MKI9)
T5 sequence: T1 sequence with I118M, P122S

[6] = target: T6, Gal4 DNA-binding domain-fused cBRC1-HCR-BRC2 T1127E (canine (Canis lupus familiaris)) (UniProt Q8MKI9)
T6 sequence: T1 sequence with P122S, T135E

[7] = target: T7, Gal4 DNA-binding domain-fused cBRC1-HCR-BRC2 T1115P (canine (Canis lupus familiaris)) (UniProt Q8MKI9)
T7 sequence: T1 sequence with P122S, T123P

Measured: binding

VP16-fused canine RAD51 (from UniProt Q8MKI8 1-339)
binds: all assays above
